Experimental data from PubChem BioAssay (NCATS).
“And” between values parts separate entries of the source, which are not always exact repeats. Equal entries are not always repeated. Inconclusive means that the source gave no clear call. Such entries were picked first, then a sample of the others. Where the call is inconclusive, the potency comes from a doubtful curve fit. The source made the active and inactive calls. Calls come from the whole dose curve; as a rule, active = well fitted inhibition curve with a large enough effect; inconclusive = small, poorly fitted or top-dose-only effect; inactive = no such curve, though single readings can be large or run the other way.

Columns and labels:
[1] = qHTS assay for measurement of the activity of small molecule inhibitors on Zika virus induced Caspase-3 activity in human iPSC derived neural progenitor cells (hNPCs) (AID 1224857); note: nearly all actives have a fitted effect of over 65% in size
Summary of the method: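 In medium with heparin 2 ug/ml and cyclopamine 2 uM, hNPCs (350 cells/well) received compound for one hour and then Zika virus at 2 FFU/cell; caspase activity was measured by Caspase-Glo 3/7 luminescence 6 h post-infection.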

[2] = qHTS assay for measurement of the activity of small molecule inhibitors on Zika virus induced Caspase-3 activity in human astrocytoma cells (AID 1224859)
Summary of the method: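 A cell-based luminescent caspase-3/7 assay used SNB-19 cells infected with ZIKV (2 FFU/cell) for 6 h following 1 h compound pretreatment.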
Potency is the fitted concentration of half-maximal effect; tags give direction and shape of the fitted curve.

Question: Which results are given for `CCN(CC)c1ccc(C(=C2C=CC(=[N+](CC)CC)C=C2)c2cc(S(=O)(=O)O)ccc2S(=O)(=O)[O-])cc1`?
Answer: Potency [1]: inconclusive: 15.8 µM [inhibitor, partial curve, poor fit]; Potency [2]: inconclusive: 31.6 µM [inhibitor, partial curve, poor fit]

Question: With `O=C(OCc1ccccc1)c1ccc(O)cc1` as the compound, how does the Potency [1] read?
Answer: Its Potency is inconclusive: 15.8 µM [inhibitor, partial curve, poor fit].

Question: And the Potency [2]?
Answer: Its Potency is inconclusive: 39.8 µM [inhibitor, single point].

Question: With `O=C1NC(=O)C(=Cc2ccc3nccnc3c2)S1` as the compound, how does the Potency [1] read?
Answer: The Potency was active: 14.4 µM.

Question: And the Potency [2]?
Answer: The Potency was inconclusive: 16.2 µM [inhibitor, partial curve].

Question: For `O=C(Nc1cc2cc[nH]c2cn1)c1ccccc1`, which Potency [1] is on record?
Answer: The Potency was active: 4.69 µM.

Question: And the Potency [2]?
Answer: Its Potency is active: 5.26 µM.

Question: Which Potency [1] does the source give for `O=C(O)Cc1ccc2c(c1)C(=O)c1ccccc1CO2` here?
Answer: The Potency was inconclusive: 35.5 µM [inhibitor, single point].

Question: What does the source list for `CC(=O)Nc1ccc([C@H](C)C(=O)Nc2ncc(C(C)C)s2)cc1`?
Answer: Potency [1]: active: 14.8 µM; Potency [2]: inconclusive: 18.7 µM [inhibitor, single point]

Question: For `CN(C)CCCSc1ccccc1NC(=O)/C=C/c1ccccc1`, which Potency [1] is on record?
Answer: The Potency was inconclusive: 7.94 µM [inhibitor, full curve, poor fit].

Question: And the Potency [2]?
Answer: The Potency was inconclusive: 7.08 µM [inhibitor, full curve, poor fit].

Question: Which Potency [1] does the source give for `Nc1ccc(O)c(C(=O)O)c1` here?
Answer: Its Potency is inconclusive: 10 µM [inhibitor, partial curve, poor fit].

Question: And the Potency [2]?
Answer: Its Potency is inconclusive: 31.6 µM [inhibitor, partial curve, poor fit].

Question: Which results are given for `O=C(O)c1c(O)c(-c2ccccc2)nc2ccccc12`?
Answer: Potency [1]: inconclusive: 22.4 µM [inhibitor, partial curve, poor fit]; Potency [2]: inconclusive: 31.6 µM [inhibitor, single point]

Question: With `CN1CC(=O)N/C1=N/C(=O)Nc1cccc(Cl)c1` as the compound, how does the Potency [1] read?
Answer: The Potency was inconclusive: 15.8 µM [inhibitor, full curve, poor fit] and active: 11.2 µM.

Question: What about the Potency [2] of the same compound?
Answer: Its Potency is inconclusive: 7.08 µM [inhibitor, partial curve, poor fit] and inconclusive: 20 µM [inhibitor, partial curve, poor fit].

Question: Which Potency [1] does the source give for `Cc1nn(-c2ccccc2)c(C)c1/C=N/N1CCN(Cc2ccccc2)CC1` here?
Answer: The Potency was “inactive”.

Question: For `OCc1cc(C(O)CNCCCCCCOCCCCc2ccccc2)ccc1O` (stereo not given), which Potency [1] is on record?
Answer: The Potency was inconclusive: 0.562 µM [inhibitor, single point].

Question: Which Potency [1] does the source give for `COC1(C2=NCCN2)COc2ccccc2O1` (stereo not given) here?
Answer: The Potency was “inactive”.

Question: Which results are given for `COCCn1c2c([n+](Cc3cnccn3)c1C)C(=O)c1ccccc1C2=O`?
Answer: Potency [1]: active: 0.418 µM; Potency [2]: active: 1.32 µM

Question: Which results are given for `CC(=O)OC(C)OC(=O)C(C)c1ccc(-c2ccccc2)c(F)c1` (stereo not given)?
Answer: Potency [1]: inconclusive: 31.6 µM [inhibitor, partial curve, poor fit]; Potency [2]: inconclusive: 35.5 µM [inhibitor, single point]

Question: With `CC(=O)SCC(CC(=O)c1ccc(C)cc1)C(=O)O` (stereo not given) as the compound, how does the Potency [1] read?
Answer: The Potency was inconclusive: 12.6 µM [inhibitor, single point].

Question: For `CCN1/C(=C/C(C)=O)Sc2ccc(OC)cc21`, which Potency [1] is on record?
Answer: The Potency was inconclusive: 3.16 µM [inhibitor, partial curve, poor fit].

Question: For `CN(C)[C@@H]1C(=O)C(C(=O)NCN2CCCC2)=C(O)[C@@]2(O)C(=O)C3=C(O)c4c(O)cccc4[C@@](C)(O)C3C[C@@H]12` (stereo not given in full), which Potency [1] is on record?
Answer: Its Potency is inconclusive: 35.5 µM [inhibitor, single point].

Question: Which results are given for `CCOCCOC(=O)/C=C/c1ccc(OC)cc1`?
Answer: Potency [1]: inconclusive: 15.8 µM [inhibitor, partial curve, poor fit]; Potency [2]: inconclusive: 39.8 µM [inhibitor, partial curve, poor fit]

Question: With `c1ccc2c(Cc3c[nH]c4ccccc34)c[nH]c2c1` as the compound, how does the Potency [1] read?
Answer: The Potency was inconclusive: 18.7 µM [inhibitor, partial curve].

Question: And the Potency [2]?
Answer: The Potency was inconclusive: 11.8 µM [inhibitor, partial curve, poor fit].

Question: Which Potency [1] does the source give for `CC(C(=O)O)c1ccc(C(=O)c2cccs2)cc1` (stereo not given) here?
Answer: Its Potency is active: 22.4 µM.

Question: And the Potency [2]?
Answer: Its Potency is inconclusive: 17.8 µM [inhibitor, partial curve, poor fit].

Question: Which results are given for `CCN(CC)CCCC(C)Nc1c2ccc(Cl)cc2nc2ccc(OC)cc12` (stereo not given)?
Answer: Potency [1]: inconclusive: 10 µM [inhibitor, full curve, poor fit]; Potency [2]: inconclusive: 12.6 µM [inhibitor, partial curve, poor fit]

Question: With `COc1ccc2nc(NC(=O)Nc3ccccc3)sc2c1` as the compound, how does the Potency [1] read?
Answer: Its Potency is inconclusive: 22.4 µM [inhibitor, partial curve, poor fit].

Question: What about the Potency [2] of the same compound?
Answer: The Potency was inconclusive: 35.5 µM [inhibitor, single point].

Question: Which Potency [1] does the source give for `CCCCCCCC/C=C/C(=O)O` here?
Answer: The Potency was inconclusive: 10 µM [inhibitor, partial curve, poor fit].

Question: Which results are given for `CCc1ccc(/C=C2/SC(=S)NC2=O)cc1`?
Answer: Potency [1]: inconclusive: 11.2 µM [inhibitor, partial curve, poor fit]; Potency [2]: inconclusive: 35.5 µM [inhibitor, single point]

Question: For `CN[C@H](CC(=O)O)C(=O)O`, which Potency [1] is on record?
Answer: The Potency was “inactive”.

Question: What does the source list for `O=C(O)c1ccccc1NCCc1ccccc1`?
Answer: Potency [1]: inconclusive: 31.6 µM [inhibitor, partial curve, poor fit]; Potency [2]: inconclusive: 35.5 µM [inhibitor, single point]
